# Lines with a small IC50 respond at low doses; a fit beyond the top or the lowest dose is shown as a bound at that dose. For AUC the same curve is integrated over the 256-fold range of doses and scaled to a fraction; it is 1 without any effect and falls as sensitivity rises. An inferred top dose is not printed in the source and was worked back from the curve model. For some of these results: Where an entry number is given, a second screen of the drug exists; the two often differ.
# Tests used:
# Test in all cases: Viability of human cancer cell lines after 72 h of drug (GDSC screen)
# [1] = compound: CCNc1cc(NC2CCC(O)CC2)nc(Nc2ccc3c(ccn3Cc3ccccc3)c2)n1 [CGP-082996 (CINK4)]; details: top dose 5.12 µM; top dose inferred
# Method: (§1)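 Human cancer cell lines in 384-well plates, medium with 10% serum, drug for 72 h over a 256-fold dose range (nine 2-fold or five 4-fold steps up to the top dose). Adherent lines were fixed and stained with the nucleic acid dye Syto60, suspension lines read with resazurin; signal relative to control wells, capped at 0 and 100%. One two-parameter sigmoid per drug and line, fitted in a mixed model over all curves with the slope shared within a line.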
# [2] = compound: Cc1cccc(-c2[nH]c(C(C)(C)C)nc2-c2ccc3nccnc3c2)n1 [SB-525334]; details: top dose 20 µM; top dose inferred
# Method: as §1
# [3] = compound: O=C(c1cc(Cc2n[nH]c(=O)c3ccccc23)ccc1F)N1CCN(C(=O)C2CC2)CC1 [Olaparib]
# Method: as §1
# [4] = compound: COc1cc(-c2nn([C@H]3CC[C@H](N4CCN(C(C)=O)CC4)CC3)c3ncnc(N)c23)ccc1NC(=O)c1cc2ccccc2n1C [A-770041]; details: top dose 5.12 µM; top dose inferred
# Method: as §1
# [5] = compound: Cc1cc(N2CCOCC2)cc2[nH]c(-c3c(NC[C@@H](O)c4cccc(Cl)c4)cc[nH]c3=O)nc12 [BMS-536924]
# Method: as §1
# [6] = compound: O=C1NC(=O)c2c1c(-c1ccccc1Cl)cc1[nH]c3ccc(O)cc3c21 [Wee1 inhibitor 681640]; details: top dose 2 µM; top dose inferred
# Method: as §1
# [7] = compound: NC(=O)c1ccc(N(C(N)=O)c2c(F)cccc2F)nc1-c1ccc(F)cc1F [VX-702]; details: top dose 2 µM; top dose inferred
# Method: as §1
# [8] = compound: Cc1ccc(-n2nc(C(C)(C)C)cc2NC(=O)Nc2ccc(OCCN3CCOCC3)c3ccccc23)cc1 [BIRB 0796]; details: top dose 10 µM; top dose inferred
# Method: as §1
# [9] = compound: COc1cc(N2CCN(C)CC2)ccc1Nc1ncc2c(n1)N(C)c1ccccc1C(=O)N2C [XMD8-85]; details: top dose 8 µM; top dose inferred
# Method: as §1
# [10] = compound: CNC(=O)c1ccc(Nc2cc(Nc3ccccc3S(=O)(=O)C(C)C)c3cc[nH]c3n2)nc1 [HG-5-113-01]; details: top dose 10 µM; top dose inferred
# Method: as §1
# [11] = compound: CC(C)=CC[C@@H](O)C1=CC(=O)c2c(O)ccc(O)c2C1=O [Shikonin]; details: top dose 16 µM; top dose inferred
# Method: as §1
# [12] = top dose 5 µM, screen: GDSC drug entry 1017, top dose inferred
# [13] = top dose 10 µM, screen: GDSC drug entry 1495
# [14] = top dose 4 µM, screen: GDSC drug entry 1091, top dose inferred
# [15] = top dose 5.12 µM, screen: GDSC drug entry 62
Cell Line,AUC [1],IC50 [1] [µM],AUC [2],IC50 [2] [µM],"AUC [3, 12]","IC50 [3, 12] [µM]","AUC [3, 13]","IC50 [3, 13] [µM]",AUC [4],IC50 [4] [nM],"AUC [5, 14]","IC50 [5, 14] [nM]","AUC [5, 15]","IC50 [5, 15] [nM]",AUC [6],IC50 [6] [nM],AUC [7],IC50 [7] [nM],AUC [8],IC50 [8] [µM],AUC [9],IC50 [9] [µM],AUC [10],IC50 [10] [µM],AUC [11],IC50 [11] [nM]
"MZ1-PC (pancreas, adherent)",0.901,> 5.12,0.82,15.2,0.973,> 5,0.934,> 10,0.611,695,0.729,1330,0.63,802,0.959,> 2000,0.951,> 2000,0.954,> 10,0.912,> 8,0.63,1.56,0.196,96
"MZ2-MEL (melanoma, adherent)",0.954,> 5.12,0.954,> 20,0.893,> 5,0.941,> 10,0.89,> 5120,0.666,787,0.803,3070,0.89,> 2000,0.971,> 2000,0.589,1.15,0.96,> 8,0.787,5.17,0.351,358
"Mo-T (hairy cell leukaemia, suspension)",0.986,> 5.12,0.877,> 20,0.972,> 5,0.933,> 10,0.988,> 5120,0.985,> 4000,0.988,> 5120,0.988,> 2000,0.978,> 2000,0.976,> 10,0.988,> 8,0.871,9.74,0.56,1460
"NALM-6 (B-cell leukaemia, suspension)",0.827,2.46,0.967,> 20,0.943,> 5,0.987,> 10,0.724,1220,0.957,> 4000,0.813,2220,0.972,> 2000,0.977,> 2000,0.991,> 10,0.862,5.12,0.643,1.44,0.159,116
"NAMALWA (Burkitt lymphoma, suspension)",0.946,> 5.12,0.796,7.75,0.985,> 5,0.971,> 10,0.729,1260,0.95,> 4000,0.715,1150,0.989,> 2000,0.987,> 2000,0.989,> 10,0.87,5.55,0.766,3.13,0.554,1370
